Patent publication US20220363775A1 (Memorial Sloan Kettering, published 2022)

Target: T1, human C-type lectin domain family 12 member A (CLEC12A) (human, UniProt Q5QGZ9 1-265)
T1 construct: also called CD371; CLL-1
T1 sequence: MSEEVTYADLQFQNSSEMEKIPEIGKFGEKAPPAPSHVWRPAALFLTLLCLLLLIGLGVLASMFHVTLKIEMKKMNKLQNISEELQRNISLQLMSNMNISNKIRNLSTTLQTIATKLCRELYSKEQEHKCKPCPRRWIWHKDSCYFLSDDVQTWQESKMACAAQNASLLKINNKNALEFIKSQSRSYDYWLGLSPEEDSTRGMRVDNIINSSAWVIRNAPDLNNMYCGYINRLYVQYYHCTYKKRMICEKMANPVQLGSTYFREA
Assay: flow cytometry, dose titration of purified scFv-Fc on live cells expressing the target

B1: CLEC12A scFv-Fc (purified recombinant CLEC12A-A scFv fused to Fc) (Fc fusion)
chain: QLQLQESGPGLVKPSETLSLTCTVSGGSISSSTYYWGWIRQPPRKGLEWIGSTHYRGSTYYNPSLKSRVTISVDTSKNQFSLKVSSVTAADTAVYYCARELTGEVFDYWGQGTLVTVSSASTGGGGSGGGGSGGGGS[in this place about 100 residues]
notes: also called CLEC12A scFv (CLEC12A-A); not shown: Fc part (and any linker) of the scFv-Fc is not described
B1 showed an EC50 of 0.081 µg/mL.
